{"source": "PubChem BioAssay AID1347417", "about": "(National Center for Advancing Translational Sciences (NCATS), 2020)", "note": "About 5,300 (4.4%) of roughly 120,000 compounds were called active. Inconclusive means that the source gave no clear call. Such entries were picked first, then a sample of the others. Calls follow the shape of the dose curve; as a rule, active = well fitted inhibition curve with a large enough effect; inconclusive = small, poorly fitted or top-dose-only effect; inactive = no such curve, though single readings can be large or run the other way. Potencies of inconclusive entries are doubtful fits and often do not repeat. Potency is read from the fitted curve at half-maximal effect; tags tell the direction and shape of the fitted curve.", "data": [{"assay": "qHTS Primary assay for Inhibitors of Plasmodium falciparum Dd2 growth in vitro; also: nearly all actives have a fitted effect of over 65% in size;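 as to activity, negative = inhibition: plate controls were DMSO vehicle for no effect and reference drug for full effect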", "conditions": "P. falciparum Dd2 growth, SYBR Green, 72 h; activity, negative = inhibition: at 28.9 µM (top of the series) unless noted; series mostly up to 28.9 µM", "procedure,_shortened": "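Infected erythrocytes (Dd2, 0.3% parasitemia, 2.5% hematocrit final) are added to compound in RPMI-1640/Albumax II medium, grown 72 h at 37C in low oxygen, then lysed with saponin/Triton-X containing SYBR Green and read by fluorescence.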", "values": [{"smiles": "Cc1ccccc1NC(=O)c1c(NC(=O)C(F)(F)F)sc2c1CCCCC2", "Potency": "active: 10 µM"}, {"smiles": "COCC(=O)Nc1ccc(-c2noc([C@@H]3CCCN3Cc3cccnc3)n2)cn1", "Potency": "active: 8.91 µM"}, {"smiles": "CN(C)C[C@@H]1CN(Cc2cccnc2)C[C@H]1NC(=O)C1CC=CCC1", "note": "(stereo not given in full)", "Potency": "inactive"}, {"smiles": "CN(CC1CCOC1)S(=O)(=O)c1cccs1", "note": "(stereo not given)", "activity, negative = inhibition": "inactive: 48.8% [at 5.79 µM]"}, {"smiles": "COc1ccc(C(=O)N[C@H]2CC[C@]3(C)CCC([C@H](C)C(=O)N4CCCC4)[C@H](O)[C@H]3[C@@H]2C)cc1", "note": "(stereo not given in full)", "Potency": "inconclusive: 10 µM [inhibitor, single point]"}, {"smiles": "Cc1ccccc1-n1cc(CNC(=O)C(c2cccc(F)c2)N(C)C)cn1", "note": "(stereo not given)", "Potency": "inconclusive: 10 µM [inhibitor, single point]"}, {"smiles": "CCc1ccc(NC(=O)C2CCN(c3cc(C(F)(F)F)ncn3)CC2)cc1", "Potency": "inconclusive: 0.631 µM [inhibitor, full curve]"}, {"smiles": "CN(C(=O)c1ccc2c(c1)N(Cc1ccccc1F)C(=O)c1ccccc1S2(=O)=O)C1CCCCC1", "Potency": "inconclusive: 11.2 µM [inhibitor, partial curve, poor fit]"}, {"smiles": "COc1ccc(NC(=O)C(NC(=O)/C=C\\c2ccc3c(c2)OCO3)c2ccc(OC)cc2)cc1", "note": "(stereo not given)", "Potency": "inconclusive: 17.8 µM [inhibitor, single point]"}, {"smiles": "Cc1ccc(NC(=O)CN2C(=O)c3ccccc3Sc3ccc(C(=O)N4CCCC4)cc32)cc1", "Potency": "inconclusive: 17.8 µM [inhibitor, single point]"}, {"smiles": "O=C(Nc1cc(Cl)ccc1Cl)c1cc(S(=O)(=O)N2CCCc3ccccc32)ccc1F", "Potency": "inconclusive: 10 µM [inhibitor, single point]"}, {"smiles": "COc1ccc2[nH]c3c(c2c1)CCNC31CCN(C(=O)c2ccccc2)CC1", "Potency": "inconclusive: 12.6 µM [inhibitor, single point]"}, {"smiles": "Cc1ncoc1C(=O)N1CCN(C(=O)N2CC3CC(C2)[C@H]2CCCC(=O)N2C3)CC1", "note": "(stereo not given in full)", "Potency": "inactive"}, {"smiles": "NC(=O)c1cccc(-c2ncc3c(n2)OCCN(Cc2ccccc2)C3=O)c1", "Potency": "inconclusive: 15.8 µM [inhibitor, partial curve, poor fit]"}, {"smiles": "COCC(=O)N(C)C1CCOc2ccccc21", "note": "(stereo not given)", "Potency": "inconclusive: 3.16 µM [inhibitor, single point]"}, {"smiles": "COc1ccc(NC(=O)C(=O)NCC(c2cccnc2)N2CCc3ccccc3C2)cc1", "note": "(stereo not given)", "Potency": "inconclusive: 17.8 µM [inhibitor, single point]"}, {"smiles": "CCCN1CCN(c2ncnc3sc(C(=O)Nc4cccc(Cl)c4C)c(C)c23)CC1", "Potency": "inconclusive: 10 µM [inhibitor, single point]"}, {"smiles": "C#C[C@H]1CN2CC[C@H]1C[C@@H]2CNS(=O)(=O)Cc1ccccc1", "Potency": "active: 7.08 µM"}, {"smiles": "CCN(CC)c1cc2c(cc1F)c(=O)c(S(=O)(=O)c1ccc(C)cc1)cn2Cc1ccc(F)cc1", "Potency": "inconclusive: 11.2 µM [inhibitor, single point]"}, {"smiles": "CCN1CCCN(S(=O)(=O)c2cnn(CC)c2)CC12CCOCC2", "Potency": "inconclusive: 10 µM [inhibitor, partial curve, poor fit]"}, {"smiles": "CC(C)c1nc2c(c(-c3ccc(O)cc3)n1)CCN(Cc1ccc(OC(F)(F)F)cc1)CC2", "Potency": "inconclusive: 1.41 µM [inhibitor, full curve, poor fit]"}, {"smiles": "Cc1noc(-c2ccco2)c1C(=O)NC(C)c1ccccc1", "note": "(stereo not given)", "Potency": "inactive"}, {"smiles": "COc1ccc(Cl)cc1NC(=O)Cn1cccc1-c1nc(-c2ccccc2)no1", "Potency": "inconclusive: 3.98 µM [inhibitor, single point]"}, {"smiles": "CCc1nc(CC)n2ccn(Cc3ccc(C#N)cc3)c(=O)c12", "Potency": "inconclusive: 7.94 µM [inhibitor, single point]"}, {"smiles": "CC1=C(C(=O)Nc2cccnc2)C(c2ccc(Cl)cc2)n2nc(SCc3ccccc3)nc2N1", "note": "(stereo not given)", "Potency": "inconclusive: 6.31 µM [inhibitor, partial curve, poor fit]"}, {"smiles": "Cc1noc(-c2nc(-c3ccc4c(c3)OCO4)no2)n1", "Potency": "inactive"}, {"smiles": "Cn1cc(CC(=O)N2CCCc3ncc(C(=O)N4CCCC[C@@H]4Cc4ccccc4)cc32)c2ccccc21", "Potency": "inconclusive: 3.98 µM [inhibitor, full curve, poor fit]"}, {"smiles": "COCCOC1CCOC2(CCN(C(=O)c3cc(-c4ccc(F)cc4)n[nH]3)CC2)C1", "note": "(stereo not given)", "Potency": "active: 11.2 µM"}, {"smiles": "FC(F)(F)c1cccc(-c2nccn3c(C4CN(Cc5ccc6cn[nH]c6c5)C4)ncc23)c1", "Potency": "inconclusive: 3.55 µM [inhibitor, partial curve]"}, {"smiles": "CCOc1ccc(C(CC(=O)Nc2cc(C)c(Cl)cc2OC)N2Cc3ccccc3C2=O)cc1OC", "note": "(stereo not given)", "Potency": "inconclusive: 17.8 µM [inhibitor, single point]"}, {"smiles": "CC1CCCCN1Cc1c(O)ccc2c(=O)c(-c3ccccc3)coc12", "note": "(stereo not given)", "Potency": "active: 10 µM"}, {"smiles": "O[C@@H]1C[C@@H](c2nc(-c3ccc(F)cc3)no2)N(Cc2ccc(F)cc2)C1", "Potency": "inactive"}, {"smiles": "CCOC(=O)C1=C(CN2CCCCC2)NC(=O)NC1c1ccc(C)cc1", "note": "(stereo not given)", "Potency": "inconclusive: 8.91 µM [inhibitor, single point]"}, {"smiles": "Cc1cccc(C(=O)N2C[C@@H](COc3ccccc3)[C@H](C(N)=O)C2)n1", "Potency": "inactive"}, {"smiles": "CCn1ncc(N2CCC(NC(=O)COc3ccc(F)cc3)CC2)cc1=O", "Potency": "inconclusive: 0.141 µM [inhibitor, full curve, poor fit]"}, {"smiles": "COc1ccc(C(=O)Nc2nnc(S(=O)(=O)N3CCC(C)CC3)s2)cc1OC", "Potency": "inconclusive: 11.2 µM [inhibitor, single point]"}, {"smiles": "O=C(c1cccc(F)c1)N1CCC(c2c[nH]c3ccccc23)(c2c[nH]c3ccccc23)CC1", "Potency": "inconclusive: 7.94 µM [inhibitor, partial curve, poor fit]"}, {"smiles": "CCN(C(=O)C1CCCN(c2ncnc3onc(-c4ccc(F)cc4)c23)C1)c1ccccc1", "note": "(stereo not given)", "Potency": "inconclusive: 14.1 µM [inhibitor, partial curve, poor fit]"}, {"smiles": "CCOC(=O)c1cc(-c2ccc(F)cc2)n(CCC(=O)NCc2ccccc2OC)c1C", "Potency": "inconclusive: 20 µM [inhibitor, single point]"}, {"smiles": "Cc1c(CN(C)Cc2cccc(C(=O)Nc3ccc(C#N)cc3)c2)cnn1C", "Potency": "inactive"}, {"smiles": "CCN(C(=O)c1nn(-c2ccc(C)cc2)c(=O)c2c1c1ccccc1n2C)c1ccc(F)cc1", "Potency": "inconclusive: 10 µM [inhibitor, single point]"}, {"smiles": "CCCNc1cc(N2CCC(CCC(=O)NCCN3CCCCCC3)CC2)ncn1", "Potency": "inconclusive: 17.8 µM [inhibitor, single point]"}, {"smiles": "Cc1cccc(OCC(=O)N(Cc2ccc(C(C)C)cc2)Cc2ccco2)c1C", "Potency": "inconclusive: 12.6 µM [inhibitor, single point]"}, {"smiles": "CC(C)COc1ccc(-c2nonc2NC(=O)c2ccc(F)cc2)cc1", "Potency": "inconclusive: 15.8 µM [inhibitor, single point]"}, {"smiles": "CCc1ccc(S(=O)(=O)N2CC(COC)C3(CCNCC3)C2)cc1", "note": "(stereo not given)", "Potency": "inconclusive: 8.91 µM [inhibitor, partial curve]"}, {"smiles": "CN(C)c1ccc(C(=O)NC2CCN(c3cc(-c4ccc(Cl)cc4)[nH]n3)C2)cc1", "note": "(stereo not given)", "Potency": "inconclusive: 8.91 µM [inhibitor, partial curve]"}, {"smiles": "CC(C)N1C(=O)CO[C@H](c2ccc(NC(=O)c3ccccc3)cc2)[C@H]1CO", "Potency": "inactive"}, {"smiles": "CS(=O)(=O)N1CCCN(C(=O)c2ccco2)CCNC(=O)CC1c1ccccc1", "note": "(stereo not given)", "Potency": "inactive"}, {"smiles": "COCCOCC(=O)N1CCCN(Cc2ccncc2)C(c2ccccc2)CC(=O)NCC1", "note": "(stereo not given)", "Potency": "inconclusive: 17.8 µM [inhibitor, single point]"}, {"smiles": "Cc1ccc2c(C)c(C(=O)N3CCCC3c3nc(C(C)C)no3)oc2c1C", "note": "(stereo not given)", "Potency": "inconclusive: 2 µM [inhibitor, full curve, poor fit]"}, {"smiles": "Cc1ccc2nsnc2c1S(=O)(=O)N[C@@H]1CC[C@@H](N)C1", "Potency": "inactive"}, {"smiles": "CC(C)c1ccc(NC(=O)C2CCCCC(=O)N2)cc1", "note": "(stereo not given)", "Potency": "inconclusive: 5.62 µM [inhibitor, partial curve]"}, {"smiles": "Cc1ccc(C(C)NC(=O)CN2C(=O)C3(CCNCC3)Nc3ccccc32)cc1", "note": "(stereo not given)", "Potency": "inconclusive: 15.8 µM [inhibitor, single point]"}, {"smiles": "Cc1cnc(C2CCNC2)n1Cc1ccc(F)cc1", "note": "(stereo not given)", "Potency": "inactive"}, {"smiles": "O=C(c1ccc(C(F)(F)F)cc1)N1CCn2c(nnc2-c2cccnc2)C1", "Potency": "inactive"}, {"smiles": "CCCc1cnc(C)nc1N1CCN(Cc2ccccc2F)C(CCO)C1", "note": "(stereo not given)", "Potency": "inconclusive: 7.94 µM [inhibitor, partial curve]"}, {"smiles": "Cc1c(-c2ccccc2)c(=O)oc2c(CN3CCCC3)c(O)ccc12", "Potency": "inconclusive: 11.2 µM [inhibitor, single point]"}, {"smiles": "CCOC1CCOC2(CCN(C(=O)c3n[nH]c4ccccc34)CC2)C1", "note": "(stereo not given)", "Potency": "inconclusive: 7.08 µM [inhibitor, partial curve, poor fit]"}, {"smiles": "COc1ccc(OCC2(C)COc3ccc(C(=O)NCc4cccnc4)cc3N2)cc1", "note": "(stereo not given)", "Potency": "inconclusive: 0.708 µM [inhibitor, partial curve, poor fit]"}, {"smiles": "COc1ccc(OC)c(CNC(=O)C2(CCO)CCN(c3ncccn3)C2)c1", "note": "(stereo not given)", "Potency": "inactive"}, {"smiles": "O=C(CCCn1ccc2cc(S(=O)(=O)N3CCCC3)ccc21)NCc1ccc(Cl)cc1", "Potency": "inconclusive: 10 µM [inhibitor, single point]"}, {"smiles": "O=C(c1ccccc1F)N1CCn2c(nnc2[C@@H]2C[C@@H](O)CN2Cc2ccccc2)C1", "Potency": "inactive"}, {"smiles": "O=C(CC1CCOC2(CCN(Cc3cccc(F)c3)CC2)C1)NC1CC1", "note": "(stereo not given)", "Potency": "inactive"}, {"smiles": "CO[C@@H]1C[C@H]2C(=O)Nc3ccc(-c4cccc(C(F)(F)F)c4)cc3C(=O)N2C1", "Potency": "inactive"}, {"smiles": "CN1c2cc(C(=O)NC3CCCCC3)ccc2C(=O)N2CCCC21", "note": "(stereo not given)", "Potency": "inconclusive: 10 µM [inhibitor, partial curve, poor fit]"}]}]}
